# Measured values from article PMC4336329 (PLoS ONE, 2015).
# Out of some 310,000 compounds screened, about 2,200 (0.71%) showed an effect of 50% or more. The effect is printed as a negative number. This is one part of the list.
# Biological target: human ether-à-go-go-related gene (hERG) potassium channel (human, UniProt Q12809)
# Assay: primary screen, population patch clamp on CHO cells stably expressing hERG
# Sequence of human ether-à-go-go-related gene (hERG) potassium channel (Q12809 whole entry, looked up): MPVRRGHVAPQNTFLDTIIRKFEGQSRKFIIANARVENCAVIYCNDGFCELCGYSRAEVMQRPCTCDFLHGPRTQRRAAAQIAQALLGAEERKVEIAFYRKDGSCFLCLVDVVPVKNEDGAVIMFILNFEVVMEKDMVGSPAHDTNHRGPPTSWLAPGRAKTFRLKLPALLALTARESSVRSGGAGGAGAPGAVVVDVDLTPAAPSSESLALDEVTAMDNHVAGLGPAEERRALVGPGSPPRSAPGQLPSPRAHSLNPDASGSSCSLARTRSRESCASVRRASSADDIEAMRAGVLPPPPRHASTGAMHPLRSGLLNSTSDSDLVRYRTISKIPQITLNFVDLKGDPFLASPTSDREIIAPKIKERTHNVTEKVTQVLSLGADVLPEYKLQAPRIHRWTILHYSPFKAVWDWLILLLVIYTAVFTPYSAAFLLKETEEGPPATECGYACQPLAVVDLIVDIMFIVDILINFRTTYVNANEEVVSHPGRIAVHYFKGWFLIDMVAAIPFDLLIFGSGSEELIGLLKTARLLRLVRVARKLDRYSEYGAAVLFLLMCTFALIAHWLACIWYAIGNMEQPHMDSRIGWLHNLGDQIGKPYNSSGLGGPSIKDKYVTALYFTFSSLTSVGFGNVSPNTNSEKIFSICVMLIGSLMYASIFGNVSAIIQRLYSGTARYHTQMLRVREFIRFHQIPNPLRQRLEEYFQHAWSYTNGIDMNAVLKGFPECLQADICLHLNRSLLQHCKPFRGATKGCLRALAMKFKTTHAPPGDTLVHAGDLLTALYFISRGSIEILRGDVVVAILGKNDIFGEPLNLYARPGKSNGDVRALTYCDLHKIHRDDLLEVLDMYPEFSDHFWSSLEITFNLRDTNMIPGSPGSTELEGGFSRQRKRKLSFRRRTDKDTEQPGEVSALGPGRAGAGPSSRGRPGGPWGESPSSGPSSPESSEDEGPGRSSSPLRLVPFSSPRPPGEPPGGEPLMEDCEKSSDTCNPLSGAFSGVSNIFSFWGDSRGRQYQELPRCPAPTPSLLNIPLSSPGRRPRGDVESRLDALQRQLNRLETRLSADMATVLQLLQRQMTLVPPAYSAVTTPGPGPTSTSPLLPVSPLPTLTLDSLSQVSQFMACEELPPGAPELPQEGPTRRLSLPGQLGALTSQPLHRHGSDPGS
row,SMILES,"hERG current change (%, negative = inhibition) at 1uM [%]"
1,O=C(NCCCO)/C(=C\C=C\c1ccccc1)NC(=O)c1ccccc1Cl,10.4
2,CCCCn1c(N)c(N(CC)C(=O)/C=C/c2ccco2)c(=O)[nH]c1=O,1.82
3,COc1cc2c(c(OC)c1O)C(=O)CO2,18.1
4,COc1ccc(S(=O)(=O)N2CCCCCC2)cc1C(=O)N(C)CC(=O)Nc1ccccc1Br,25.6
5,CC(=O)c1ccc(NC(=O)CSc2nc(N)c3cc4c(nc3n2)CCCC4)cc1,11.9
6,O=c1[nH]c2cc(S(=O)(=O)CCO)ccc2o1,12.8
7,Cc1nc([N+](=O)[O-])c(Br)n1Cc1ccccc1,6.81
8,C/C(=N/NC(=O)c1cccc(Br)c1)C1CC2CCC1C2 (stereo not drawn),7.3
9,Cc1cnc(C(=O)OCC(=O)c2ccccc2)cn1,14.2
10,Cc1c(NC(=O)/C(C#N)=C/c2c(N3CCCCC3)nc3ccccn3c2=O)c(=O)n(-c2ccccc2)n1C,8.14
11,CCOc1ccc(NC(=O)CSc2cn[nH]n2)cc1,1.69
12,Cc1c(C=NCCOCc2ccccc2)cnn1C,11.7
13,Cc1ccc(N2CC(C(=O)N3CCOCC3)CC2=O)cc1C (stereo not drawn),12.4
14,COc1cc2c(-c3ccccc3O)nc3c(c(C)nn3-c3ccccc3)c2cc1OC,2.24
15,O=C1c2ccccc2C(=O)C1(CO)c1ccccc1,12
16,COCCCNC(=S)N(Cc1ccccc1)Cc1ccc(F)cc1,4.9
17,Cc1nonc1-c1ccc2c(c1)OCO2,15.9
18,CN(CCOc1ccccc1)C(=O)c1cc([N+](=O)[O-])cc([N+](=O)[O-])c1,-23.9
19,O=C(NCCN1CCOCC1)c1ccc2c(c1)N(Cc1ccccc1)CCS2,1.85
20,COC(=O)c1ccc(C)c(NC(=O)CN(c2cc(OC)ccc2OC)S(C)(=O)=O)c1,-7.38
21,CC(=O)N/N=C(\C)CCc1ccccc1,16.3
22,Cc1ccccc1OCC(=O)Nc1ccc(S(=O)(=O)Nc2onc(C)c2C)cc1,18.8
23,COCCCn1c(SCC(=O)Nc2ccc(C)cc2)nc2ccccc2c1=O,7.61

row,SMILES,"hERG current change (%, negative = inhibition) at 1uM [%]"
1,COc1ccc([C@@H]2[C@@H]3C(=O)N(C(C)(C)C)C(=O)[C@@H]3[C@]3(CC(C)C)C(=O)N(c4cccc(Br)c4)C(=O)N23)cc1,15.8
2,O=C(CSc1cn(CC(=O)N2CCCCCC2)c2ccccc12)NCC1CCCO1 (stereo not drawn),7.45
3,CCNC(=O)CC1SC(=Nc2ccccc2C)N(C)C1=O (stereo not drawn),-2.18
4,CSc1ccc(CCNC(=O)C2CCCN(S(=O)(=O)N3CCOCC3)C2)cc1 (stereo not drawn),16.2
5,CC(Cc1c[nH]c2ccccc12)C(=O)O (stereo not drawn),7.64
6,Cc1cc(C(=O)NC2CCCN(Cc3ccc(Cl)cc3)C2)no1 (stereo not drawn),7.23
7,CCCc1cc(=O)oc2cc(C)cc(OC(C)C(=O)NCCCn3ccnc3)c12 (stereo not drawn),4.4
8,COc1ccc(C(=O)NCCOc2cccc(Oc3ccccc3)c2)cc1OC,8.42
9,CC12CCC(C(=O)N3CCCCC3)(CC1=O)C2(C)C (stereo not drawn),12.2
10,CCCCCC(=O)Nc1c2c(nc3ccccc13)CCC2,4.6
11,COc1cc(CC(=O)OCC(=O)c2ccc3c(c2)OCCO3)cc(OC)c1OC,-3.16
12,O=C(NC(=S)Nc1ccccn1)c1ccc(-c2ccccc2)cc1,8.82
13,COc1ccc(-n2nc(C(=O)NCC(=O)N3CCN(C)CC3)c3ccccc3c2=O)cc1OC,12.4
14,O=S(=O)(c1ccc(OCC(O)CN2CCN(c3ccccc3)CC2)cc1)N1CCOCC1 (stereo not drawn),7.19
15,CC(=O)N1CC(C)Sc2ccc(S(=O)(=O)NCCc3cccc(C)c3)cc21 (stereo not drawn),8.76
16,CC(=O)NC(CC(=O)OCC(=O)N1c2ccccc2NC(=O)C1(C)C)c1ccccc1 (stereo not drawn),3.54
17,O=c1nccc(N/N=C/c2cccc(O)c2)[nH]1,18.3
18,CCOC(=O)c1c(NC(=O)c2nn(C)cc2[N+](=O)[O-])sc(C)c1C,13.3
19,Cc1cc(C(=O)Nc2ccon2)ccc1[N+](=O)[O-],9.65
20,Cc1cc(C(=O)COC(=O)c2nc3nccc(C)n3n2)c(C)n1CC1CCCO1 (stereo not drawn),17.1
21,CCCc1c(C(=O)OCC)[nH]c2c1C(=O)CCC2,8.63
22,CCOC(=O)c1cc2oc(C(c3nnnn3C3CCCCC3)N3CCOCC3)cc2[nH]1 (stereo not drawn),0.694
